Assay [1] deals with T1, human FcRn (Homo sapiens, UniProt P55899). Description: AlphaLISA blocking assay (IgG binding to FcRn). Also on record: purchased Biorbyt orb84388. The note with it: 10 nM biotinylated human FcRn, pH 6.0. The procedure: The potential of Z variants to inhibit binding of IgG to FcRn was analyzed in an AlphaLISA assay with an EnSpire multiplate reader 2300 (Perkin Elmer). Human IgG (Roactemra) was immobilized on AlphaLISA acceptor beads (Perkin Elmer, cat. no. 6772002) according to the manufacturer's recommendations. Stepwise serial dilutions 1:3 of His-tagged Z variants to final concentrations of 250 nM to 38 pM were made in a 384-well plate (Perkin Elmer, cat. no. G6005350) and incubated for 45 min with 10 nM biotinylated human FcRn (Biorbyt, cat. no. orb84388; biotinylated essentially as described in Example 2) in AlphaLISA buffer (Perkin Elmer, cat. no. AL000F) adjusted to pH 6.0 using HCl. IgG-coated Acceptor beads were added to a final concentration of 10 μM and incubated for 45 min. Finally, streptavidin coated Donor beads (Perkin Elmer, cat. no. 6772002) were added to a final concentration of 40 μg/ml and incubated for 30 min. All incubations were performed at RT in the dark. The plate was analyzed in the EnSpire instrument and the IC50 values were calculated using GraphPad Prism 5.
The potential of Z variants to inhibit binding of IgG to FcRn was analyzed in the AlphaLISA assay described in Example 3.
(Alpha assays give light when donor and acceptor beads are brought close together.)

Assay [2] concerns the target T1, human FcRn. Description: Biacore kinetic analysis of His6-tagged Z variants. The class given is binding. Also on record: made in house; host or cells: human SKOV-3 cells, lentivirally transduced, secreted; purified on immobilized human IgG. The note with it: hFcRn, pH 6.0, Langmuir 1:1 model, approximate. As to the method: The interaction of FcRn binding His6-tagged Z variants with human FcRn was analyzed in a Biacore 2000 instrument (GE Healthcare). Human FcRn was immobilized in a flow cell on the carboxylated dextran layer of a CM5 chip surface (GE Healthcare). The immobilization was performed using amine coupling chemistry according to the manufacturer's protocol and using HBS-EP (GE Healthcare) as running buffer. One flow cell surface on the chip was activated and deactivated for use as blank during analyte injections. In the two binding experiments presented below, McIlvaines phosphate-citrate buffer pH 6.0 supplemented with 0.005% Tween-20 (0.005% PCT) was used as running buffer. In all experiments, a flow rate of 50 μl/min was used.
In another experiment, approximate kinetic constants (kon and koff) and affinities (KD) were determined for a subset of His6-tagged Z variants. Three concentrations of the Z variants were injected for 1 minute followed by dissociation in running buffer for 1 minute. The surfaces were equilibrated with running buffer during 7.5 minutes before the start of next cycle. […] Kinetic constants were calculated from the sensorgrams using the Langmuir 1:1 model of BiaEvaluation software 4.1 (GE Healthcare).
On the technique in general: Surface plasmon resonance follows binding to a sensor surface in real time, without labels.

For assay [3], the target named is T1, human FcRn. Description: ELISA KD titration analysis of Z-ABD variants from the maturation. The format is binding. Also noted: purchased Biorbyt orb84388. The note with it: Z-ABD variants in periplasm. The procedure:
A selection of FcRn binders was subjected to an analysis of the response against a dilution series of biotinylated human FcRn using ELISA at both pH 6.0 and pH 7.4 as described above. […] As a background control, all Z variants were also assayed with no target protein added. […] Periplasm containing the ABD moiety only was used as a negative control. Data were analyzed using GraphPad Prism 5 and non-linear regression and KD values (the half maximal effective concentration) were calculated.
(In general: An ELISA detects its analyte on a solid surface through an enzyme-linked reagent.)

The mark [4] stands for this setting: maturated His6-tagged monomeric Z variants.
[5] abbreviates: His6-tagged primary Z variants and dimers.

Usually IC50 stands for the concentration at which inhibition is half-maximal. Read a high IC50 as lower potency. In general, Kd refers to the constant that tells how readily two partners part at equilibrium. For orientation: koff means the first-order rate constant of dissociation. Read a high koff as a short-lived complex. Broadly, the kon is a measure of how fast the partners come together. A higher kon goes with faster complex formation.

“Z13583: FcRn binding Z variant from the maturated library (VDAKYAKELEKAGHEIRWLPNLTFDQRVAFIHKLRDDPSQSSELLSEAKKLNDSQAPK; Engineered FcRn binding polypeptide)” gave an IC50 in the assay with human FcRn [1] (setting [4]) of 2.7 nM. On to “Z13592: FcRn binding Z variant from the maturated library (VDAKYAKEVDIAAHEIRWLPNLTFDQRVAFIHKLRDDPSQSSELLSEAKKLNDSQAPK; Engineered FcRn binding polypeptide)”, for which, in the assay with human FcRn [1] (setting [4]), the IC50 amounted to 6.4 nM.

With “Z10111: FcRn binding Z variant, 58 amino acid residues, from phage display selection (VDAKYAKEDDTAAHEIRWLPNLTYEQRWAFIHKLYDDPSQSSELLSEAKKLNDSQAPK; Engineered FcRn binding polypeptide)”, in the assay with human FcRn [1] (setting [5]), the IC50 amounted to 46 nM. In the case of “Z13674: FcRn binding Z variant from the maturated library (VDAKYAKEIEDAGHEIRWLPNLTFDQRVAFIHKLRDDPSQSSELLSEAKKLNDSQAPK; Engineered FcRn binding polypeptide)”, the IC50 with human FcRn [1] (setting [4]) was found to be 2.5 nM. For the substance “Z10156: FcRn binding Z variant, 58 amino acid residues, from phage display selection (VDAKYAKERTQASHEIRWLPNLTYDQRVAFINKLRDDPSQSSELLSEAKKLNDSQAPK; Engineered FcRn binding polypeptide)”, in the assay with human FcRn [2], binding was put at a Kd of 370 nM, the “koff” value came out at 0.28 s⁻¹ and the “kon” value was found to be 760000 M⁻¹ s⁻¹. In the assay with human FcRn [1] (setting [5]), “Z13993: FcRn binding Z variant, 58 amino acid residues, from phage display selection (VDAKYAKEAGRAAHEIRWLPNLTWDQRVAFIWKLRDDPSQSSELLSEAKKLNDSQAPK; Engineered FcRn binding polypeptide)” returned an IC50 of 130 nM. That is a sub-micromolar value. Turning to “Z13578: FcRn binding Z variant from the maturated library (VDAKYAKEWTDAAHEIRWLPNLTFDQRVAFIHKLRDDPSQSSELLSEAKKLNDSQAPK; Engineered FcRn binding polypeptide)”, in the assay with human FcRn [1] (setting [4]), the IC50 was 12 nM.

In the case of “Z13573: FcRn binding Z variant from the maturated library (VDAKYAKESKDAAHEIRWLPNLTFDQRVAFIHKLRDDPSQSSELLSEAKKLNDSQAPK; Engineered FcRn binding polypeptide)”, the Kd with human FcRn [3] (pH 6.0, read-out: KD pH 6.0) was 1.1 nM; in the assay with human FcRn [3] (pH 7.4, read-out: KD pH 7.4), 3.8 nM. In the assay with human FcRn [1] (setting [4]), “Z13616: FcRn binding Z variant from the maturated library (VDAKYAKEWQQAAHEIRWLPNLTFDQRVAFIHKLRDDPSQSSELLSEAKKLNDSQAPK; Engineered FcRn binding polypeptide)” displayed an IC50 of 7.4 nM. Turning to “Z13626: FcRn binding Z variant from the maturated library (VDAKYAKEADSASHEIRWLPNLTFDQRVAFIHKLRDDPSQSSELLSEAKKLNDSQAPK; Engineered FcRn binding polypeptide)”, the Kd stood at 1.2 nM with human FcRn [3] (pH 6.0, read-out: KD pH 6.0) and 2.7 nM with human FcRn [3] (pH 7.4, read-out: KD pH 7.4). In turn, “Z13675: FcRn binding Z variant from the maturated library (VDAKYAKENQAAAHEIRWLPNLTFDQRVAFIHKLRDDPSQSSELLSEAKKLNDSQAPK; Engineered FcRn binding polypeptide)” had an IC50 with human FcRn [1] (setting [4]) of 8.2 nM. Take “Z13865: FcRn binding Z variant from the maturated library (VDAKYAKEHLNAAHEIRWLPNLTFDQRVAFIHKLRDDPSQSSELLSEAKKLNDSQAPK; Engineered FcRn binding polypeptide)”: the Kd in the assay with human FcRn [3] (pH 6.0, read-out: KD pH 6.0) worked out at 2.5 nM; in the assay with human FcRn [3] (pH 7.4, read-out: KD pH 7.4) it was 5.6 nM. For “Z13860: FcRn binding Z variant from the maturated library (VDAKYAKEISDAKHEIRWLPNLTFDQRVAFIHKLDDDPSQSSELLSEAKKLNDSQAPK; Engineered FcRn binding polypeptide)”, the Kd with human FcRn [3] (pH 6.0, read-out: KD pH 6.0) was 2.3 nM; with human FcRn [3] (pH 7.4, read-out: KD pH 7.4), 8.7 nM. Consider “Z13605: FcRn binding Z variant from the maturated library (VDAKYAKEIESAKHEIRWLPNLTFDQRVAFIHKLNDDPSQSSELLSEAKKLNDSQAPK; Engineered FcRn binding polypeptide)”, for which the dissociation constant (Kd) with human FcRn [3] (pH 6.0, read-out: KD pH 6.0) turned out to be 1.3 nM; with human FcRn [3] (pH 7.4, read-out: KD pH 7.4), 3.8 nM.

Take “Z13586: FcRn binding Z variant from the maturated library (VDAKYAKELKDAGHEIRWLPNLTFDQRVAFIHKLRDDPSQSSELLSEAKKLNDSQAPK; Engineered FcRn binding polypeptide)”: the Kd with human FcRn [3] (pH 6.0, read-out: KD pH 6.0) was determined as 1.2 nM; with human FcRn [3] (pH 7.4, read-out: KD pH 7.4), 2.3 nM. For the substance “Z13637: FcRn binding Z variant from the maturated library (VDAKYAKEVEVAKHEIRWLPNLTFDQRVAFIHKLDDDPSQSSELLSEAKKLNDSQAPK; Engineered FcRn binding polypeptide)”, the dissociation constant (Kd) was 1.3 nM with human FcRn [3] (pH 6.0, read-out: KD pH 6.0) and 4.8 nM in the assay with human FcRn [3] (pH 7.4, read-out: KD pH 7.4). With “Z13824: FcRn binding Z variant from the maturated library (VDAKYAKEWYSAAHEIRWLPNLTFDQRVAFIHKLRDDPSQSSELLSEAKKLNDSQAPK; Engineered FcRn binding polypeptide)”, the Kd in the assay with human FcRn [3] (pH 6.0, read-out: KD pH 6.0) worked out at 1.9 nM; in the assay with human FcRn [3] (pH 7.4, read-out: KD pH 7.4), 3.8 nM.

The substance “Z13654: FcRn binding Z variant from the maturated library (VDAKYAKELEAAKHEIRWLPNLTFDQRVAFIHKLDDDPSQSSELLSEAKKLNDSQAPK; Engineered FcRn binding polypeptide)” returned an IC50 with human FcRn [1] (setting [4]) of 3.5 nM. Consider “Z13639: FcRn binding Z variant from the maturated library (VDAKYAKEHDSAAHEIRWLPNLTFDQRVAFIHKLRDDPSQSSELLSEAKKLNDSQAPK; Engineered FcRn binding polypeptide)”, for which the Kd was 1.3 nM with human FcRn [3] (pH 6.0, read-out: KD pH 6.0) and 3 nM with human FcRn [3] (pH 7.4, read-out: KD pH 7.4). In turn, “Z13669: FcRn binding Z variant from the maturated library (VDAKYAKELASAGHEIRWLPNLTFDQRVAFIHKLRDDPSQSSELLSEAKKLNDSQAPK; Engineered FcRn binding polypeptide)” showed a half-maximal inhibitory concentration (IC50) in the assay with human FcRn [1] (setting [4]) of 5.2 nM. As to “Z13635: FcRn binding Z variant from the maturated library (VDAKYAKEWNDAAHEIRWLPNLTFDQRVAFIHKLRDDPSQSSELLSEAKKLNDSQAPK; Engineered FcRn binding polypeptide)”, the Kd in the assay with human FcRn [3] (pH 6.0, read-out: KD pH 6.0) came to 1 nM; with human FcRn [3] (pH 7.4, read-out: KD pH 7.4) it was 1.7 nM. Taken in the same sequence, the figures for “Z13588: FcRn binding Z variant from the maturated library (VDAKYAKEYAAAAHEIRWLPNLTFDQRVAFIHKLRDDPSQSSELLSEAKKLNDSQAPK; Engineered FcRn binding polypeptide)” were 1 nM and 2.3 nM.

Take “Z13585: FcRn binding Z variant from the maturated library (VDAKYAKEYLDAAHEIRWLPNLTFDQRVAFIHKLRDDPSQSSELLSEAKKLNDSQAPK; Engineered FcRn binding polypeptide)”: the dissociation constant (Kd) in the assay with human FcRn [3] (pH 6.0, read-out: KD pH 6.0) came to 1.2 nM; in the assay with human FcRn [3] (pH 7.4, read-out: KD pH 7.4) it was 1.7 nM. Taken in the same sequence, the figures for “Z13625: FcRn binding Z variant from the maturated library (VDAKYAKEVSDAAHEIRWLPNLTFDQRVAFIHKLRDDPSQSSELLSEAKKLNDSQAPK; Engineered FcRn binding polypeptide)” were 1.3 nM and 2.8 nM.

For the substance “Z13600: FcRn binding Z variant from the maturated library (VDAKYAKEAHEAAHEIRWLPNLTFDQRVAFIHKLRDDPSQSSELLSEAKKLNDSQAPK; Engineered FcRn binding polypeptide)”, the Kd was 1.4 nM with human FcRn [3] (pH 6.0, read-out: KD pH 6.0) and 4 nM with human FcRn [3] (pH 7.4, read-out: KD pH 7.4).

Values taken from patent US9975943B2, “Polypeptides” (AFFIBODY AB, priority 2013, dated 2018).
